Reference: the supplement of paper PMC3334620
In all, about 33,000 sequences were measured (“E-score (-0.5 to 0.5)”: median about -0.054, highest 2% from about 0.39 on). The list shows a part of the results.

biological target: Ylr278c (UniProt Q05854); assay: PBM E-score (8-mer binding enrichment) (E-score (-0.5 to 0.5)); higher = stronger / more preferred TF binding; most listed sequences are background and not binding sites; settings: protein concentration: 200 nM; construct: GST-DNA-binding domain
Outline: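 Detection of bound protein used fluorescent anti-GST, with scans normalised by masliner. The proteins were GST-tagged yeast transcription factors applied at about 100-200 nM to universal all-10-mer Agilent arrays made double-stranded by primer extension. Each ungapped eight-base word, pooled with its reverse complement, was scored with an E-score from the Universal PBM Analysis Suite.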

Sequence	PBM E-score
AGCCTCTC	-0.212
CCACACCG	0.13
CAGCAGCG	-0.00585
CCTGCGAC	-0.139
CGTAAGCA	-0.148
CAGTCCAG	-0.249
AGATAAAC	0.101
CGGGCCAG	0.158
CTTGGGGC	0.0643
CAGCGCAA	-0.00957
AAGACATG	-0.278
GGCCCAAA	-0.00724
ACTGGACC	1e-05
GAATGTGC	-0.0597
ATCATGAA	-0.0938
GATTATAC	0.162
AAGCCAGG	-0.173
ATCCCCGC	0.393
CTACTCGC	-0.0793
CCGACCAG	0.213
TGCTGCAA	-0.175
ATAGGTGA	-0.101
CAGAGCAA	-0.0987
CCGGAACC	0.402
CATGACTC	-0.173

Sequence	PBM E-score
CTGGTGCA	-0.237
TGGCGGAA	0.295
TCCCCCAA	-0.252
ACCGGAAA	0.369
GGATTTAA	0.216
CTGTGATC	-0.0143
AAATCTAT	-0.0238
GCCCATAC	-0.275
GACTGTCA	-0.0692
CAAGGGAA	-0.215
CTTTAATC	-0.0149
CAGAAGTC	-0.136
TATAGCAA	-0.15
ACCGCGCC	0.125
AGTGAACC	-0.135
CACGAAAG	-0.0924
GTCTTAAA	-0.137
CATACGTC	-0.0276
ATAATCTA	0.0377
GGCGTCCC	0.0884
CGCCCTAA	-0.0151
CAGCCAGC	-0.191
ATAAGACC	0.0726
CGCCGGAA	0.432
AACCTTGA	-0.0432

Sequence	PBM E-score
ACCGGCCT	0.179
CTGTCCCC	-0.127
GACACCAA	-0.0658
AATACGGA	0.37
GGCGCCTA	-0.115
CTTTGTTC	0.163
AACGAGAG	-0.0657
TAGAGCTA	-0.281
AGATTAAT	0.0681
CCCACGGA	0.359
AAGGGTGT	0.0144
ATGGTACG	0.0066
GGTCTCAC	-0.133
AATTCGTG	-0.135
ATGCACAC	-0.153
CATGATAG	-0.277
CAAAGCGA	-0.0272
CCTTGCTC	0.0082
CGAACTTC	-0.158
CTAAGCGC	0.0111
CAGCCTGC	-0.159
AAGGACGG	0.054
ACAAGCAA	-0.164
CCGTTCCG	0.402
CGATGTAC	0.0176

Sequence	PBM E-score
ACCCCAGA	-0.168
AGCTGCCG	0.137
AGACCCAG	-0.263
GTCTACAA	-0.282
ACCCGCCA	-0.068
CTCGGACC	0.365
GAATAATC	0.0213
CAGATTAA	0.0707
AACCGTAA	0.0944
GTCTGAAA	-0.123
GTTTCATA	-0.0158
CGCAACGA	0.0472
ATTTCAGA	-0.127
AACTTCGG	0.302
TTCGGCAA	0.211
CAGATGCG	-0.144
CTCAAAAA	-0.113
AAACTAGG	0.00324
CGTTCCAA	-0.0135
TAAGAAAA	-0.0396
GTTGAACA	-0.22
GGTCCCCA	0.0138
AGCCCTCA	-0.107
GCCCGTAC	0.0569
CCACAAAC	0.0849

Sequence	PBM E-score
GGTCTGCA	0.0432
ACGCTCAT	-0.173
CGCTACGC	0.00348
AAAGGGAC	-0.268
ATTTCGGG	0.235
ACTCGACA	0.0965
CTTTATAA	-0.106
ACTGGTAT	-0.222
ACCGGGTC	0.134
CTACGATC	-0.205
CGGCGTAG	0.196
ACATTTAC	-0.135
ACAATTGC	-0.0317
ATTCAGAC	-0.275
CCTAGTGA	-0.0501
CTAAAGGC	-0.265
CGTTTTTA	-0.0693
GGGCATAC	-0.0274
CTCTGTCA	-0.21
CTGTCCAA	-0.217
GGTCTGAC	-0.0242
CTTACTTC	0.00609
CGAAAGTA	0.00237
GGGCGCCA	0.0802
CCACCCTA	-0.0146

Sequence	PBM E-score
CCATTTCG	0.0464
GACTCGGA	0.4
CCGATTAG	0.339
AACATAAC	-0.0924
ATCCTGGG	-0.23
CCATTTAG	-0.0672
CACCTGGA	-0.182
TCTTGTAA	-0.0214
CTCGGTTA	0.0916
ACGGAAGG	0.117
CTATCAAA	-0.0829
CTCCGGGC	0.448
CCCCGAGC	0.219
TCAAGCCA	-0.0992
AGATGCTG	-0.195
GCGTGCCC	-0.0595
GAAAGGTA	-0.0464
CCTACGAG	-0.251
CCTAGAGA	-0.235
GCAGCTGC	0.307
TCGGCGCA	0.233
AAAAACCC	0.147
CTAGTGTA	-0.216
GATGCTCC	0.278
ACGGAAGT	0.29

Sequence	PBM E-score
CGGATGTC	0.4
CCGTCACC	0.167
ACATCAGG	-0.0864
AGAGGGCT	-0.368
AACGTTCT	-0.0505
ATGCCATA	-0.301
ATTTAGGG	0.109
AGGATACT	-0.0649
ACGCATTA	-0.216
AGAATAGA	-0.147
ACCAGCAT	-0.138
ATTGTTTG	-0.112
TCAGTTCA	-0.185
GTGTGAAC	-0.0885
AACCCTGT	-0.219
ACTTGCAA	-0.111
AAGGTAAC	-0.0766
TGGGCACA	-0.163
ATGGGCAA	-0.118
GATTGCTA	-0.156
AGCCCTTG	-0.276
TAGATCGA	-0.0704
GGGAGAAC	-0.0233
AAAAAAGC	-0.215
CACTATCC	0.0508

Sequence	PBM E-score
CCGATGGC	0.321
GATCGGCA	0.173
TCGACAGA	-0.274
CGCGACCC	0.028
TGCTAAAA	-0.158
CAATTCTG	-0.247
GCTGAATA	-0.258
AATGGTCA	-0.0887
ACAAAAAT	-0.0086
AACACCAT	-0.0928
AGAAGTGA	-0.158
ATCTTAGC	-0.144
AACGCAAA	0.0725
ATAACGCG	0.179
GCATTAAA	-0.212
CGGCGTAC	0.316
GATAGCGC	0.0273
AGATGGCC	0.0298
ACTACTCG	0.0653
CCGAAGGC	0.214
GGATGAAA	0.14
CATGGAAC	-0.206
CTTCTAGC	-0.12
CCACTGCC	-0.153
CTCAAGAA	-0.0162

Sequence	PBM E-score
AAGCCGCC	0.112
ACTAAGGG	-0.0488
AGAGTACC	-0.18
AGCAGTTA	-0.0394
CTTCTCTA	-0.154
AATACCTC	-0.0696
CATAGTCC	0.0938
AGAACCAT	-0.132
GATCTGCA	0.0556
TAATTTAA	0.0165
ACGCAAGC	-0.104
TCTTCTAA	-0.0979
ATGATCAC	-0.0937
AACATATT	0.00185
GGTCATTA	-0.14
CACCGTGA	0.0623
ACGCCGCT	0.224
ACCCGCAG	0.189
AAACCTAC	-0.102
CCCATGGA	-0.0689
CATTGAAA	-0.0316
GCCGCTAA	0.254
AGCTGTAC	0.0264
ATTCATGG	-0.123
ACCTGCAA	-0.216

Sequence	PBM E-score
CAATTCTA	-0.262
CGCCAAGA	-0.119
ATACATGA	-0.234
AAGTTCTA	-0.0869
CGACCTTA	0.0776
AATAGGTA	-0.174
AAAACCAT	-0.0695
AGATGTGC	0.0163
TTATTGAA	-0.175
CGGTGGCA	-0.0334
GCACCACA	-0.162
TAACGAGA	-0.152
AGCACCAG	-0.179
CCGCCTCC	0.283
ACGCCAGG	0.0083
AACTTACT	-0.115
GGAATGCC	0.239
TCATCTCA	0.00661
CCGATGTC	0.26
CAGCTAAC	-0.315
ACACTGGG	-0.103
ATATCTTA	-0.0308
ACCTAGGA	-0.0515
GCCGGCAA	0.391
AAAGGGAG	-0.264

Sequence	PBM E-score
CTATTGTA	0.0395
CGCTTGTA	0.102
GAGTCACC	-0.0665
ATAATTTA	0.109
ACGTCCAG	-0.183
AGAAGACT	-0.252
CATTTGCG	0.181
AGTGCGAA	0.0477
CTAGCCAA	-0.0745
AATACTCT	-0.0506
ATCCCTCA	-0.0958
TACGTTAA	-0.189
AGAATCTC	-0.0318
CGTACCCA	-0.142
GCTCATTA	-0.0644
ATTACGGC	0.133
GTTGGAAA	-0.0213
ATAGGAAC	-0.105
GGTATACA	0.0107
CCGGCCCG	0.384
AAACAGAG	-0.22
ATACCTTG	-0.236
AGGCATAT	-0.203
GGGTTCCA	-0.032
ACTGCAGG	-0.197

Sequence	PBM E-score
GAGCCCTC	-0.0813
GTGCTATA	-0.148
CTTCAAGC	-0.283
CAGAGTTA	-0.125
CGACCGTA	0.00777
ACGATTGA	-0.0541
CCACCCGA	0.0128
ATAAGCCC	-0.0246
GGATACGA	-0.164
ATGATAAA	0.0721
CCCCAAAA	-0.0117
ATATACGG	0.136
CATCTAGG	-0.159
CTTCGTAA	-0.187
CCTAATAA	-0.175
CCTCAGGA	-0.18
AAAACCCA	0.0359
GCTCGCAA	-0.18
ACTGGGTG	-0.205
ACTCTTTC	-0.0234
ATCTAGAA	-0.162
CCTTCTGA	-0.269
ACTCGATG	-0.229
CAGGCCTG	0.156
CGCAGGGA	-0.0224

Sequence	PBM E-score
AGTGTAGA	-0.317
TACCCCTA	-0.125
ATATCAAA	0.0466
TAGATCTA	-0.231
AGCCGTTC	-0.0289
CGCAAGCG	-0.177
GGTCGGAC	0.355
CTGCATTC	-0.063
CAACACAC	-0.139
AAGTCGTC	-0.134
GACAGAGC	-0.112
AACTGGGA	0.0332
GCTACCCA	-0.196
AAAAAGGG	0.0153
AGGGAAAA	-0.0563
AGAGGGTC	-0.193
ACTTACCG	0.256
CACCTGTA	-0.167
GGAGGCAC	0.0398
ATACAAAG	0.0981
ACACAACG	0.0348
ACTAGACC	0.0274
AACTCGCC	0.0959
ATCGGTGC	0.154
AATCATTC	-0.0149

Sequence	PBM E-score
GCACACGA	-0.138
CGAGGGCA	-0.0958
ATCGCTAA	-0.0953
GAATAGAA	0.0463
AGACCGAA	0.169
CTGCTAAG	-0.166
ACGCATGG	-0.102
GATATCGC	0.0418
ACGTACGG	0.0794
GTGGGTCA	-0.256
AAGGCAGT	-0.169
AAGGCATA	-0.176
AAGCCGTA	0.0173
GTCTCCTA	-0.166
CTGAGGCC	0.115
TGCTAGAA	-0.153
ACAAAGAA	-0.00298
GAATAAGC	-0.0831
GATCGGAA	0.408
